Data: paper PMC5006311
Substitutions are numbered along the chain they refer to. Names may count otherwise. These are yes or no findings as the source states them, for the method shown. In cells and extracts the contact can be indirect. Some entries that bind do so weakly or less than the wild type. For part of these data: Sequences can lack the tags named with a protein.

Columns and labels:
[1] = molecular target: T1, wild type human equilibrative nucleoside transporter 1 (hENT1), as HA-hENT1 and as 3xFLAG-hENT1 (human) (UniProt Q99808); assay: co-IP; HEK293 co-transfected with HA-ENT1 and a 3xFLAG construct; NP-40 lysate on anti-HA beads, about 18 h at 4°C, washed three times with TTBS; eluate immunoblotted with anti-FLAG; lysate loaded: wt 100 μg, N48Q 1000 μg, hLa 600 μg
T1 sequence (chain, N-linked glycan at N48): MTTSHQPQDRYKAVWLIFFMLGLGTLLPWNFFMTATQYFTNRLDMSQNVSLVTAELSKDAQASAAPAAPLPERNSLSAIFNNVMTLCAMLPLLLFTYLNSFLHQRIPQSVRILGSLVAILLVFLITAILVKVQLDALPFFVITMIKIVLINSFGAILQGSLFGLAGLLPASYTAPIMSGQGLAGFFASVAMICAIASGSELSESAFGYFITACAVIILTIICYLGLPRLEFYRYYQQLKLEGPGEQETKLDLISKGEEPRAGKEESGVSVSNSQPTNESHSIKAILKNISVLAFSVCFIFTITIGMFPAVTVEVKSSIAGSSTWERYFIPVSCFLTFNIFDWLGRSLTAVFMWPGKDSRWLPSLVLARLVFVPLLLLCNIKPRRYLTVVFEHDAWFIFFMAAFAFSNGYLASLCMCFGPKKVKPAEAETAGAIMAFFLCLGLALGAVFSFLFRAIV

[2] = molecular target: T2, ENT2 (of the unpublished co-immunoprecipitations) (UniProt Q14542); assay: co-IP; unpublished data (Grañe-Boladeras et al.); no conditions given
T2 sequence: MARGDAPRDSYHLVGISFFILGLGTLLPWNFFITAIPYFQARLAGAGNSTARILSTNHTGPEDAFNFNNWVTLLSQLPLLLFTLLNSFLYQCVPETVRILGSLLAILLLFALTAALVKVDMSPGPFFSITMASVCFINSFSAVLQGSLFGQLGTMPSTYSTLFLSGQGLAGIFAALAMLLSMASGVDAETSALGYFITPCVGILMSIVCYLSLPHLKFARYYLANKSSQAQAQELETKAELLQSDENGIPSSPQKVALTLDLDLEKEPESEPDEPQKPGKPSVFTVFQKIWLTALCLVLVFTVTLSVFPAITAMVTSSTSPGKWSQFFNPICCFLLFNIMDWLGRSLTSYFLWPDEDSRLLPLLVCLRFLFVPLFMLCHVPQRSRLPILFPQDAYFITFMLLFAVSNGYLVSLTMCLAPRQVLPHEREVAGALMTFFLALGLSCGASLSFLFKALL

[3] = molecular target: T3, ENT1 (of the unpublished co-immunoprecipitations) (UniProt Q99808); assay: as above
T3 sequence: T1 sequence (chain, N-linked glycan at N48)

B1: wild type human equilibrative nucleoside transporter 1 (hENT1), as HA-hENT1 and as 3xFLAG-hENT1 (protein, UniProt Q99808-1 1-456)
chain: T1 sequence (chain, N-linked glycan at N48)
modifications: N-linked glycan at N48
binding [1]: binds

B2: ENT1 (of the unpublished co-immunoprecipitations) (protein, UniProt Q99808 1-456)
chain: T1 sequence (chain, N-linked glycan at N48)
binding [2]: binds
binding [3]: binds

B3: ENT2 (of the unpublished co-immunoprecipitations) (protein, UniProt Q14542 1-456)
chain: T2 sequence
binding [2]: binds
binding [3]: binds

B4: N48Q-3xFLAG-hENT1 (N-glycosylation mutant of human ENT1) (protein, UniProt Q99808-1 1-456)
chain: T1 sequence (chain, N-linked glycan at N48) with N48Q
binding [1]: no binding (tested: 1000 μg lysate loaded to column)
